# Reference: PubChem BioAssay AID1508623 (National Center for Advancing Translational Sciences (NCATS), 2021)
# About 450 (0.94%) of roughly 48,000 compounds were called active. Not shown: some 19% with an inconclusive outcome. Calls follow the shape of the dose curve; as a rule, active = well fitted inhibition curve with a large enough effect; inconclusive = small, poorly fitted or top-dose-only effect; inactive = no such curve, though single readings can be large or run the other way. The list shows a part of the results.
# Assay: Primary qHTS for Identification of Small Molecule Inhibitors of Huntingtin Promoter Activity; also: nearly all actives have a fitted effect of over 50% in size
# Conditions: HEK293 HTT promoter firefly luciferase reporter (activity 0% = vehicle and -100% = no light), 24 h; series mostly up to 57.5 µM; activity change, negative = inhibition: at the top concentration
# Outline: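 Quantitative HTS used concentration series of up to 57.5 uM final on HEK293 luciferase reporter cells, 24 h at 37 degrees C. Readout was Dual-Glo firefly luminescence.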
row,Structure (SMILES),"activity change, negative = inhibition"
1,CCn1nnc2cc(C(=O)Nc3cccc(Cl)c3)ccc21,inactive: 19.2%
2,Cc1nc2nc(NC(=O)c3cccc(Cl)c3)[nH]n2c(=O)c1Cc1ccccc1,inactive: -10.6%
3,CCOc1ccc(-n2c(-c3ccc(C)cc3)nc3c(cnn3-c3ccccc3)c2=O)cc1,inactive: -18.5% [at 11.5 µM]
4,Cc1ccc(NC(=O)CCn2c(=O)c3cccn3c3ccccc32)c(Cl)c1,inactive: -23.1%
5,COc1ccc(CCNC(=O)CCc2c(C)nc3c(c(C)nn3-c3ccc(C)c(C)c3)c2C)c(OC)c1OC,inactive: -9.75%
6,CCOC(=O)c1c(S(=O)(=O)N2CCC(C(=O)Nc3ccccc3OC)CC2)c(C)n(CC)c1C,inactive: -7.14%
7,COc1ccc(CCNC(=O)Cn2cc(C(=O)c3ccccc3)c(=O)c3ccc(C)nc32)cc1OC,inactive: -4.77%
8,COc1cccc(N2CC(NC(=O)Cc3cccs3)CC2=O)c1 (stereo not given),inactive: -12%
9,CCOc1ccc(OCC)c(Nc2nc3ccccc3c3nnc(C)n23)c1,inactive: 17.7%
10,Cc1ccc2c(c1)c1c(c(=O)n(-c3ccccc3)c(=O)n1CC(=O)N1CCCC1)n2C,inactive: -15.2%
11,CCn1cc(C(=O)NCCc2ccc(C)cc2)c(=O)c2cc(S(=O)(=O)N(C)C)ccc21,inactive: -6.29%
12,Cc1ccccc1C(=O)Nc1ccccc1C(=O)OCc1cc(=O)n2ccsc2n1,inactive: -5.64%
13,CN1C(=O)CC(=O)N(C)c2cc(S(=O)(=O)N(C)Cc3ccccc3)ccc21,inactive: -18.7%
14,CCCCN(CCCC)CCNC(=O)c1cn(C)c2ccc(S(=O)(=O)N3CCOCC3)cc2c1=O,inactive: -9.56% [at 11.5 µM]
15,COc1ccc2c(c1)c1c(c(=O)n(-c3ccc(OC)c(OC)c3)c(=O)n1Cc1ccccc1C)n2C,inactive: 4.05%
16,Cc1ccc(-n2ncc(C(=O)NCCN3CCN(C)CC3)c2C2CCN(C(=O)OC(C)(C)C)CC2)c(C)c1,inactive: -10.2%
17,CN(Cc1ccccc1)C(=O)CN1C(=O)CSc2ccc(S(=O)(=O)N3CCOCC3)cc21,inactive: -8.85%
18,COc1ccc(OC)c(S(=O)(=O)Nc2cc3c(cc2C)n(C)c(=O)c(=O)n3C)c1,inactive: -5.48%
19,CCc1ccc(-c2cn3c(n2)sc2cc(C(=O)NCCc4ccc(OC)cc4OC)ccc23)cc1,inactive: -17.6%
20,COc1ccccc1NC(=O)Cn1c(=O)n(Cc2ccc3c(c2)OCO3)c(=O)c2oc3ccccc3c21,inactive: 3.83%
21,Cc1ccc(NC(=O)NCc2ccc3c(c2)CCN3C(=O)c2ccccc2)c(Cl)c1,inactive: -26.3%
22,COc1ccc(NC(=O)c2cn(CC(C)C)c(=O)c3cc(OC)c(OC)cc23)cc1Cl,inactive: -22.7%
23,NS(=O)(=O)c1ccc(CCNC(=O)CCCCCn2c(=O)[nH]c3ccccc3c2=O)cc1,inactive: -13.1%

row,Structure (SMILES),"activity change, negative = inhibition"
1,Cc1ccc(NC(=O)c2nn(C)c3c2CS(=O)(=O)c2ccccc2-3)c(Cl)c1,inactive: -1.45%
2,Cc1nc(N2CCOCC2)c2c(C(=O)NCc3cccc(Cl)c3)c(C)oc2n1,inactive: 8.78%
3,Oc1c(C(c2ccccc2)N2CCC3(CC2)OCCO3)sc2nc(-c3ccco3)nn12 (stereo not given),inactive: -8.43%
4,O=C(CCCCCn1c(=O)c2sccc2n(CC(=O)Nc2cccc(Cl)c2)c1=O)NCc1ccc2c(c1)OCO2,inactive: -27.8%
5,COc1ccc(-c2nc3c(c(SCC(=O)Nc4ccc(C(=O)O)cc4)n2)Cc2ccccc2O3)cc1,inactive: 3.94%
6,CCOC(=O)Cc1ccc(NC(=O)Nc2cccc(OCc3cc(=O)n4cc(C)ccc4n3)c2)cc1,inactive: 5.61%
7,CCc1cccc(NC(=O)CSc2ncc3c(n2)-c2ccc(Cl)cc2N(Cc2ccccc2)S3(=O)=O)c1,inactive: -9.45%
8,COc1cccc(C(=O)NC2(C(F)(F)F)C(=O)Nc3c2c(=O)[nH]c(=O)n3-c2ccc(C)cc2)c1 (stereo not given),inactive: -1.85%
9,CCc1ccc(NC(=O)C(NS(=O)(=O)c2cccs2)C(C)C)cc1 (stereo not given),inactive: -26.4%
10,CCCCN(C)CCNC(=O)c1ccc2c(=O)n(CCc3ccccc3)c(=O)[nH]c2c1,inactive: 3.1%
11,Cn1c(=O)c2c(c3ccccc31)OC(=O)CC2c1ccc(C(F)(F)F)cc1 (stereo not given),inactive: -9.95%
12,O=C(Nc1ccc2oc(-c3cccc4c(Br)cccc34)nc2c1)c1ccc(F)cc1,inactive: -12% [at 11.5 µM]
13,O=C(COC(=O)c1cc(-c2cccs2)nc2ccccc12)c1ccccc1,inactive: 28.3%
14,O=C(c1ccc2c(c1)N(Cc1ccccc1F)C(=O)c1ccccc1S2(=O)=O)N1CCOCC1,inactive: -14.1%
15,CCCN(CCC)CCCNC(=O)Cn1cnc2sc(C)c(S(=O)(=O)N3CCCCC3)c2c1=O,inactive: -15.9%
16,CCCN(Cc1cccs1)C(=O)Nc1cc(Cl)c(OC)cc1OC,inactive: -4.92%
17,COc1cccc(-n2c(SCC(=O)Nc3cc(C)ccc3C)nc3c(oc4ccccc43)c2=O)c1,inactive: -9.72%
18,COc1ccc(-c2cc(C(=O)Oc3ccccc3)c3cc(C)ccc3n2)cc1,inactive: 43.3%
19,CCn1c(=O)n(-c2ccc(C)c(F)c2)c(=O)c2sc3ccccc3c21,inactive: -9.9%
20,CCOCCCNC(=O)c1ccc2nc(CCc3ccccc3)oc2c1,inactive: 0.788%
21,COc1cccc(CN2CCc3nc(Nc4ccc5c(c4)OCCO5)ncc3C2)c1,inactive: -23.8%
22,Cc1ccc2nc(N(Cc3cccnc3)C(=O)Cc3ccccc3)sc2c1,inactive: -10%
23,CCOC(=O)c1ccccc1NC(=O)Cn1ncc2c([nH]c3ccccc32)c1=O,inactive: -13.7%

row,Structure (SMILES),"activity change, negative = inhibition"
1,CCc1ccccc1NC(=O)CCn1nc(C)c2c(C)n(-c3ccccc3)nc2c1=O,inactive: -15.5%
2,CC1CCN(c2ncnc3c2cnn3-c2ccc(F)cc2)CC1,inactive: 25.7%
3,CCc1ccc(-n2c(=O)c3c4c(sc3n(CC(=O)NCCCOC)c2=O)CCCC4)cc1,inactive: -3.15%
4,O=C(NCCc1cccs1)c1ccc(Cn2c(SCc3ccc(F)cc3)nc3cccnc32)cc1,inactive: 11.3%
5,CC[C@H](C=C[C@@H](C)[C@H]1CC[C@H]2[C@@H]3CC=C4C[C@@H](O)CC[C@]4(C)[C@@H]3CC[C@]12C)C(C)C,inactive: -0.1% [at 25.2 µM]
6,COc1cccc(NC(=O)c2sc3nc(C)c(C(=O)Nc4ccc(C)cc4C)c(-c4ccccc4Cl)c3c2N)c1,inactive: -4.14%
7,CC1(C)O[C@H]2CC(=O)OC[C@]23[C@H]2CC[C@@]4(C)[C@H](c5ccoc5)OC(=O)[C@H]5O[C@]54[C@]2(C)C(=O)C[C@@H]13,inactive
8,Cc1ccc(CCNC(=O)c2ccc(NC(=O)N3CC(C)Sc4ccccc43)cc2)cc1 (stereo not given),inactive: -7.35%
9,COC(=O)C1=C(c2ccccc2)c2ccccc2S(=O)(=O)N1CC(=O)Nc1cccc(C(C)=O)c1,inactive: -36%
10,NC(N)=NC(=O)Cc1c(Cl)cccc1Cl,inactive: -11.3%
11,COc1ccccc1N1CCN(C(=O)c2cn(C)c3ccc(S(=O)(=O)N(C)C4CCCCC4)cc3c2=O)CC1,inactive: -2.66% [at 11.5 µM]
12,CCOc1ccc(NC(=O)c2cnn(-c3ccc(C)c(C)c3)c2C2CCN(C(=O)OC(C)(C)C)CC2)cc1,inactive: -3.92%
13,CC1=C(C(=O)Nc2ccccc2)C(c2ccc(C(=O)O)cc2)n2ncnc2N1 (stereo not given),inactive: -2.38%
14,Cc1ccc(NC(=O)CCCn2c(=O)c3cccn3c3ccccc32)c(C)c1,inactive: 26.7%
15,CCOC(=O)c1cnc2c(ccc3ccccc32)c1Nc1cccc(C(F)(F)F)c1,inactive: -15.2%
16,Cc1ccc(C(=O)NCC(c2ccc3c(c2)OCO3)N2CCN(C)CC2)cc1C (stereo not given),inactive: -13.4%
17,CCc1noc(-c2ccc(NCc3ccccc3)c([N+](=O)[O-])c2)n1,inactive: -10.5%
18,N=c1c(C(=O)NCC2CCCO2)cc2c(=O)n3ccccc3nc2n1CCCO (stereo not given),inactive: -6.85%
19,COc1ccc(F)cc1S(=O)(=O)NCC(c1ccco1)S(=O)(=O)c1ccc(F)cc1 (stereo not given),inactive: -16.9%
20,Cc1cc(C(F)F)n2nc(C(=O)Nc3cccc(Cl)c3C)nc2n1,inactive: -5.52%
21,Cc1nn(CCCC(=O)NCCc2ccc(Cl)cc2)c(=O)c2c1sc1ccccc12,inactive: -1.24%
22,Cn1ncc2c(NCc3ccccc3Cl)nc(NCCO)nc21,inactive: -19.4%
23,COc1ccc2c(c1)c1c(c(=O)n(-c3ccccc3)c(=O)n1CC(=O)NCCC1=CCCCC1)n2C,inactive: -17.9%

row,Structure (SMILES),"activity change, negative = inhibition"
1,Cc1c(-c2ccccc2)oc2c(C(=O)OCCN3CCCCC3)cccc2c1=O,inactive: -7.2%
2,CCOc1ccc(CNC(=O)C2CCN(S(=O)(=O)c3cn(C)cn3)CC2)cc1,inactive: 7.08%
3,O=C(CN1C(=O)CCn2nc(-c3ccccc3)cc21)NCc1ccc(F)cc1,inactive: -14.6%
4,CCOC(=O)Cn1c(=O)n(C2CCCCC2)c2nc(-c3ccc(CC)cc3)nc(C(N)=O)c21,inactive: -4.86%
5,Cc1nc2ccccc2n2c(-c3ccccc3)c3c(=O)n(C)c(=O)n(C)c3c12,inactive: 6.85%
6,Cc1ccccc1N(C)S(=O)(=O)c1nnc(NC(=O)c2ccccc2F)s1,inactive: -16.5%
7,COc1cccc(Cn2c(CNC(=O)CCc3ccccc3)nc3cccnc32)c1,inactive: -4.28%
8,Cc1ccc(NC(=O)C(=O)NCCc2sc(-c3ccc(Cl)cc3)nc2C)cc1C,inactive: -6.44%
9,Cc1c(Cl)cccc1NC(=O)CCS(=O)(=O)c1ccc2c(c1)oc(=O)n2C,inactive: -5.34%
10,COc1cccc(CNC(=O)CCn2nc(C)c3c(C)n(-c4ccccc4)nc3c2=O)c1,inactive: -8.74%
11,CN(c1ccccc1)S(=O)(=O)c1nnc(NC(=O)C2CCCCC2)s1,inactive: -12.9%
12,CCOC(=O)c1c(C)c(C(=O)NCc2ccc(OC)cc2)c(C)n1CC,inactive: -5.07%
13,COc1ccc(NCc2cc3cc4c(cc3n(CC(=O)Nc3ccc(F)cc3)c2=O)OCCO4)cc1,inactive: -24.5%
14,O=C(CSc1nc2ccccc2nc1Cc1ccc(Cl)cc1)N1CCCc2ccccc21,inactive: 9.51%
15,COC(=O)C(C)Sc1nc2c(cnn2-c2ccc(F)cc2)c(=O)[nH]1 (stereo not given),inactive: -7.21%
16,Cc1ccc2c(=O)cc(C(=O)Nc3ccc(S(=O)(=O)N(C)Cc4ccccc4)cc3)oc2c1C,inactive: -10.9%
17,COc1cccc(C(=O)NCc2cn3ccccc3n2)c1,inactive: 3.05%
18,CN(N=O)C(=O)N[C@@H]1[C@@H](O)[C@H](O)[C@@H](CO)O[C@@H]1O,inactive: 10.7%
19,CCOc1ccc(OCC)c(NS(=O)(=O)c2c(C(=O)N3CCCCCC3)c(C)n(C)c2C)c1,inactive: -10.4%
20,O=C(NCCCO)C(=O)NCC(c1ccc2c(c1)OCO2)N1CCOCC1 (stereo not given),inactive: -8.6%
21,COc1ccc(C2c3c(oc4ccc(C)cc4c3=O)C(=O)N2CCCN2CCOCC2)cc1OC (stereo not given),inactive: 1.55%
